The list shows a part of the results.
What was measured:
Assay in all cases: glycan array binding signal (z-score within array); higher = stronger binding
Conditions in all cases: glycan notation: IUPAC condensed, linker removed
[1] = target: GlcNAc(b1-3)Gal(b1-4)GlcNAc
Method in brief: (§1)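 The binding signal is a Z-score computed within each array. Data were drawn from 3228 arrays in the Consortium for Functional Glycomics database, restricted to those with a known protein sequence. Scores were averaged over arrays of the same protein sequence at different concentrations or buffers, and over linkers, and negative values can be taken as non-binding.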

[2] = target: GlcNAc(b1-3)Gal(b1-4)GlcNAc(b1-2)Man(a1-3)[GlcNAc(b1-3)Gal(b1-4)GlcNAc(b1-2)Man(a1-6)]Man(b1-4)GlcNAc(b1-4)GlcNAc
Method in brief: as §1

[3] = target: GlcNAc(b1-3)Gal(b1-4)GlcNAc(b1-2)Man(a1-3)[GlcNAc(b1-3)Gal(b1-4)GlcNAc(b1-2)Man(a1-6)]Man(b1-4)GlcNAc(b1-4)[Fuc(a1-6)]GlcNAc
Method in brief: as §1

[4] = target: GlcNAc(b1-3)Gal(b1-4)GlcNAc(b1-2)[GlcNAc(b1-3)Gal(b1-4)GlcNAc(b1-6)]Man(a1-6)[GlcNAc(b1-3)Gal(b1-4)GlcNAc(b1-2)Man(a1-3)]Man(b1-4)GlcNAc(b1-4)GlcNAc
Method in brief: as §1

[5] = target: GlcNAc(b1-3)Gal(b1-4)GlcNAc(b1-3)Gal(b1-4)GlcNAc
Method in brief: as §1

[6] = target: GlcNAc(b1-3)Gal(b1-4)GlcNAc(b1-3)Gal(b1-4)GlcNAc(b1-2)Man(a1-3)[GlcNAc(b1-3)Gal(b1-4)GlcNAc(b1-3)Gal(b1-4)GlcNAc(b1-2)Man(a1-6)]Man(b1-4)GlcNAc(b1-4)GlcNAc
Method in brief: as §1

[7] = target: GlcNAc(b1-3)Gal(b1-4)GlcNAc(b1-3)Gal(b1-4)GlcNAc(b1-2)Man(a1-3)[GlcNAc(b1-3)Gal(b1-4)GlcNAc(b1-3)Gal(b1-4)GlcNAc(b1-2)Man(a1-6)]Man(b1-4)GlcNAc(b1-4)[Fuc(a1-6)]GlcNAc
Method in brief: as §1

[8] = target: GlcNAc(b1-3)Gal(b1-4)GlcNAc(b1-3)Gal(b1-4)GlcNAc(b1-2)[GlcNAc(b1-3)Gal(b1-4)GlcNAc(b1-3)Gal(b1-4)GlcNAc(b1-6)]Man(a1-6)[GlcNAc(b1-3)Gal(b1-4)GlcNAc(b1-3)Gal(b1-4)GlcNAc(b1-2)Man(a1-3)]Man(b1-4)GlcNAc(b1-4)[Fuc(a1-6)]GlcNAc
Method in brief: as §1

[9] = target: GlcNAc(b1-3)Gal(b1-4)GlcNAc(b1-3)Gal(b1-4)GlcNAc(b1-3)Gal(b1-4)GlcNAc(b1-2)Man(a1-3)[GlcNAc(b1-3)Gal(b1-4)GlcNAc(b1-3)Gal(b1-4)GlcNAc(b1-3)Gal(b1-4)GlcNAc(b1-2)Man(a1-6)]Man(b1-4)GlcNAc(b1-4)GlcNAc
Method in brief: as §1

[10] = target: GlcNAc(b1-3)Gal(b1-4)GlcNAc(b1-3)Gal(b1-4)GlcNAc(b1-3)Gal(b1-4)GlcNAc(b1-2)Man(a1-3)[GlcNAc(b1-3)Gal(b1-4)GlcNAc(b1-3)Gal(b1-4)GlcNAc(b1-3)Gal(b1-4)GlcNAc(b1-2)Man(a1-6)]Man(b1-4)GlcNAc(b1-4)[Fuc(a1-6)]GlcNAc
Method in brief: as §1

[11] = target: GlcNAc(b1-3)Gal(b1-4)GlcNAc(b1-3)Gal(b1-4)GlcNAc(b1-3)Gal(b1-4)GlcNAc(b1-2)[GlcNAc(b1-3)Gal(b1-4)GlcNAc(b1-3)Gal(b1-4)GlcNAc(b1-3)Gal(b1-4)GlcNAc(b1-6)]Man(a1-6)[GlcNAc(b1-3)Gal(b1-4)GlcNAc(b1-3)Gal(b1-4)GlcNAc(b1-3)Gal(b1-4)GlcNAc(b1-2)Man(a1-3)]Man(b1-4)GlcNAc(b1-4)[Fuc(a1-6)]GlcNAc
Method in brief: as §1

[12] = target: GlcNAc(b1-3)Gal(b1-4)GlcNAc(b1-3)Gal(b1-4)GlcNAc(b1-3)Gal(b1-4)GlcNAc(b1-3)Gal(b1-4)GlcNAc(b1-2)Man(a1-3)[GlcNAc(b1-3)Gal(b1-4)GlcNAc(b1-3)Gal(b1-4)GlcNAc(b1-3)Gal(b1-4)GlcNAc(b1-3)Gal(b1-4)GlcNAc(b1-2)Man(a1-6)]Man(b1-4)GlcNAc(b1-4)GlcNAc
Method in brief: as §1

[13] = target: GlcNAc(b1-3)Gal(b1-4)GlcNAc(b1-3)Gal(b1-4)GlcNAc(b1-3)Gal(b1-4)GlcNAc(b1-3)Gal(b1-4)GlcNAc(b1-2)Man(a1-3)[GlcNAc(b1-3)Gal(b1-4)GlcNAc(b1-3)Gal(b1-4)GlcNAc(b1-3)Gal(b1-4)GlcNAc(b1-3)Gal(b1-4)GlcNAc(b1-2)Man(a1-6)]Man(b1-4)GlcNAc(b1-4)[Fuc(a1-6)]GlcNAc
Method in brief: as §1

[14] = target: GlcNAc(b1-3)Gal(b1-4)GlcNAc(b1-3)Gal(b1-4)GlcNAc(b1-3)Gal(b1-4)GlcNAc(b1-3)Gal(b1-4)GlcNAc(b1-2)[GlcNAc(b1-3)Gal(b1-4)GlcNAc(b1-3)Gal(b1-4)GlcNAc(b1-3)Gal(b1-4)GlcNAc(b1-3)Gal(b1-4)GlcNAc(b1-6)]Man(a1-6)[GlcNAc(b1-3)Gal(b1-4)GlcNAc(b1-3)Gal(b1-4)GlcNAc(b1-3)Gal(b1-4)GlcNAc(b1-3)Gal(b1-4)GlcNAc(b1-2)Man(a1-3)]Man(b1-4)GlcNAc(b1-4)[Fuc(a1-6)]GlcNAc
Method in brief: as §1

[15] = target: GlcNAc(b1-3)Gal(b1-4)GlcNAc(b1-3)Gal(b1-4)GlcNAc(b1-3)GalNAc
Method in brief: as §1

[16] = target: GlcNAc(b1-3)Gal(b1-4)GlcNAc(b1-3)GalNAc
Method in brief: as §1

[17] = target: GlcNAc(b1-3)Gal(b1-4)GlcNAc(b1-3)[GlcNAc(b1-3)Gal(b1-4)GlcNAc(b1-3)]GalNAc
Method in brief: as §1

[18] = target: GlcNAc(b1-3)Gal(b1-4)GlcNAc(b1-6)[Gal(b1-3)]GalNAc
Method in brief: as §1

[19] = target: GlcNAc(b1-3)Gal(b1-4)GlcNAc(b1-6)[GlcNAc(b1-3)Gal(b1-3)]GalNAc
Method in brief: as §1

B1: GSL-I (Griffonia simplicifolia) (protein)
chain: FNLPNFWSDVKDNIIFQGDANTTAGTLQLCKTNQYGNPLQYRAGRALYSDPVQLWDNKTGSVASFYTEFTFFLKITGDGPADGLAFFLAPPDSDVKDAGAYLGLFNKSTATQPSKNQVVAVEFDTWKNTDFPEPSYRHIGINVNSIVSVATKRWEDSDIFSGKIATARISYDGSAKILTVVLSYPDGADYILSHSVDLSKNLPNPIRVGISASTGANQFLTVYVLSWRFSSALQSTSVNAAMGPEIIRTVV
glycan array binding signal (z-score) [1]: -0.251 | glycan array binding signal (z-score) [2]: -0.236 | glycan array binding signal (z-score) [3]: -0.024 | glycan array binding signal (z-score) [4]: 0.18 | glycan array binding signal (z-score) [5]: -0.181 | glycan array binding signal (z-score) [6]: 0.363 | glycan array binding signal (z-score) [7]: -0.169 | glycan array binding signal (z-score) [8]: 0.036 | glycan array binding signal (z-score) [9]: -0.117 | glycan array binding signal (z-score) [10]: 0.086 | glycan array binding signal (z-score) [11]: -0.004 | glycan array binding signal (z-score) [12]: -0.1 | glycan array binding signal (z-score) [13]: 0.173 | glycan array binding signal (z-score) [14]: 0.004 | glycan array binding signal (z-score) [15]: -0.315 | glycan array binding signal (z-score) [16]: -0.299 | glycan array binding signal (z-score) [17]: -0.249 | glycan array binding signal (z-score) [18]: -0.235 | glycan array binding signal (z-score) [19]: -0.254

— the supplement of paper PMC8728848
